Results on 44 sequences are retold here after the supplement of paper PMC11417369.

± gives the standard deviation of the averaged measurements. Some of the results follow.

The subject of the assay is PfAP2-LT AP2 domain (GST-tagged). The assay is described as follows: gcPBM binding intensity (ln(normalized median fluorescence intensity)); higher = stronger DNA binding. Put shortly: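 GST-tagged P. falciparum DNA-binding domains, expressed in E. coli (about 25 μg on average), were applied for 1 h to an Agilent 4 × 180k array of primer-extended double-stranded 36-bp intergenic genomic probes plus negative controls. The binding buffer was 1× PBS with 1% milk, 0.2 mg/ml BSA, 0.5% salmon testes DNA and 0.03% Triton X-100. Bound protein was detected with Alexa488 anti-GST antibody and scanned at 488 nm. Binding intensity is the highest Masliner-normalised natural-log median intensity across replicate spots of either probe orientation.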
Consider “AAAAGAAATTTGGGCACATGCGAATTTATAATTTAT [TGCATGCA_site960]”, for which the “gcPBM binding intensity (ln)” value turned out to be 8.86 ± 0.44.

Turning to “TTATTATATAAAATAAATAACAAAAAAAATAAAATA [GTGCAC_negctrl_site548]”, the “gcPBM binding intensity (ln)” value amounted to 8.38 ± 0.46.

With “ATTGTTTTATATAGAACACACATAAAAATCTATATG [CACACA_site6681]”, the “gcPBM binding intensity (ln)” value stood at 8.71 ± 0.44.

Consider “CAACATTTATATTTTACACACATCATTTAAGCGCTT [CACACA_site992]”, for which the “gcPBM binding intensity (ln)” value amounted to 9.23 ± 0.28.

On to “CCTATCCATACATATACACACATATCTATTTATATA [CACACA_site1669]”, for which the “gcPBM binding intensity (ln)” value was 9.04 ± 0.36.

For “TTTGAAATAAATAATGCACACTCTACATATATACGT [CACACA_site2244]”, the “gcPBM binding intensity (ln)” value came out at 8.94 ± 0.42.

“AAATAAAATACAAGTTGTACTATAAGCTTTTTATAT [XGTACX_site8021]”: the “gcPBM binding intensity (ln)” value worked out at 8.81 ± 0.37.

Take “AATATGGTTATATATATATATATATATATATATATT [GTGCAC_negctrl_site566]”: the “gcPBM binding intensity (ln)” value is 9.51 ± 0.15.

In the case of “AGAAATATATCTATTTGTCCGTATATTCATATTTAT [XGTACX_site8427]”, the “gcPBM binding intensity (ln)” value was 8.88 ± 0.46.

“ATAAAAATATTGTCTAGTACATATTTATAATAAAAA [XGTACX_site7523]”: the “gcPBM binding intensity (ln)” value was found to be 8.37 ± 0.46.

On to “AGATTGGAACATTAAAGTACTTACTTTTTTTTTTTT [XGTACX_site8017]”, for which the “gcPBM binding intensity (ln)” value was determined as 8.47 ± 0.4.

As to “GATTACTAGAAATGCACACACTGATAAAATAAGGAA [CACACA_site6131]”, the “gcPBM binding intensity (ln)” value is 9.41 ± 0.4.

Take “TATATATATGAGTATACACACCTGATAAAGGTATAT [CACACA_site5462]”: the “gcPBM binding intensity (ln)” value was found to be 8.96 ± 0.35.

For “TTAAACTTGAAACACACACACACACCGATATAAAAA [CACACA_site4578]”, the “gcPBM binding intensity (ln)” value is 10.06 ± 0.085.

On to “ATATATTTAAACAAAAGTACAAATCATAAATTCAAG [XGTACX_site3633]”, for which the “gcPBM binding intensity (ln)” value was determined as 8.66 ± 0.42.

Take “TATATATTCTTTTAATGTACATATTGTATTATATCC [XGTACX_site4501]”: the “gcPBM binding intensity (ln)” value came to 8.86 ± 0.52.

On to “TGACATAAAAAATATACACACTATAATATTTATACT [CACACA_site6776]”, for which the “gcPBM binding intensity (ln)” value worked out at 8.83 ± 0.38.

Consider “TCTTTATCTTCTTATACACACATTTATTAAAAAAAA [CACACA_site445]”, for which the “gcPBM binding intensity (ln)” value came out at 8.55 ± 0.4.

For “ATTTTTTAAAAAGTAACACACACTCTTATATATAAT [CACACA_site9206]”, the “gcPBM binding intensity (ln)” value was 8.91 ± 0.45.

Consider “TATATACTCAAACACACACACACATACACAGACATA [CACACA_site5025]”, for which the “gcPBM binding intensity (ln)” value turned out to be 9.94 ± 0.31.

Turning to “ATTTTTTTTTTTTTTTTTTTTGCACCATAAAATAAT [CACACA_negctrl_site1324]”, the “gcPBM binding intensity (ln)” value was 8.57 ± 0.45.

For the sequence “TATATATATATGTGTACACATTTGTCAGATTATATA [CACACA_site4813]”, the “gcPBM binding intensity (ln)” value is 9.18 ± 0.36.

As for “ATTTTGACATTATATAGTACATATAATTTACATTTA [XGTACX_site3024]”, the “gcPBM binding intensity (ln)” value was 8.73 ± 0.4.

As to “AATATAATTTTTTATTGTACAAAAAAATTATTTAAT [XGTACX_site3248]”, the “gcPBM binding intensity (ln)” value was 8.27 ± 0.42.

As to “TATTATTAATATGTATGGTTGTAATCTGTGTCTCCT [TGCATGCA_negctrl_site190]”, the “gcPBM binding intensity (ln)” value is 8.85 ± 0.61.

On to “AAGAACAAATATGAGGTGCAACACAATATATTATTA [GTGCAC_site9965]”, for which the “gcPBM binding intensity (ln)” value stood at 9.05 ± 0.47.

As to “CATTTTGTAAGATATGCACACATGGATCATATTTTA [CACACA_site423]”, the “gcPBM binding intensity (ln)” value worked out at 8.95 ± 0.34.

For the sequence “TTTTTTTTTATCAAATGTACATATATATAATAATAA [XGTACX_site3941]”, the “gcPBM binding intensity (ln)” value worked out at 8.29 ± 0.35.

For “AATAAGTATACACATACACACACACCCAAAAAAAAA [CACACA_site8034]”, the “gcPBM binding intensity (ln)” value stood at 10 ± 0.39.

In the case of “TATATAAGAATATATACACACATATATGTATATATA [CACACA_site2178]”, the “gcPBM binding intensity (ln)” value was 8.91 ± 0.35.

For the sequence “TTTTACAATGAAATATGTACTTAAATGTCCAAATTC [XGTACX_site781]”, the “gcPBM binding intensity (ln)” value was 8.51 ± 0.4.

In the case of “AAAAAGAAAAATTGCACACACTTATAAAAATATACG [CACACA_site6074]”, the “gcPBM binding intensity (ln)” value worked out at 9.07 ± 0.46.

In the case of “GTTAACAAATAATGCACACAAATGGATAAAATTATA [CACACA_site3725]”, the “gcPBM binding intensity (ln)” value came out at 9.21 ± 0.38.

Take “TTAACCATTAATTCTCTACACACTTTTATTTTATTT [CACACA_site8522]”: the “gcPBM binding intensity (ln)” value amounted to 8.84 ± 0.67.

In the case of “ATGGGTATTAAGTGTACACATATAGTGTATTTTGTT [CACACA_site4452]”, the “gcPBM binding intensity (ln)” value was found to be 9.04 ± 0.3.

Consider “GTGTAAATATAATTAGTTTCACAAAACAAATATTTA [CACACA_negctrl_site717]”, for which the “gcPBM binding intensity (ln)” value was determined as 8.61 ± 0.42.

Regarding “AGGCACAAAATTAAATGTACATATATATATATATAT [XGTACX_site3323]”, the “gcPBM binding intensity (ln)” value came out at 9.835 ± 0.078.

As for “ATATATATATGTTTGTGTACTTATGATATCATATAA [XGTACX_site3276]”, the “gcPBM binding intensity (ln)” value came out at 8.97 ± 0.37.

For the sequence “ATTATATTCTTTACTACCAATTAGTAGAAAATAAAA [CACACA_negctrl_site1096]”, the “gcPBM binding intensity (ln)” value is 8.25 ± 0.44.

Regarding “TTAAAATAGCTAGTTTGTACATAAAATATATTACTT [XGTACX_site202]”, the “gcPBM binding intensity (ln)” value was 8.56 ± 0.43.

For “AATATATATATATATATTTTTGTTAGAATATGGAAT [GTGCAC_negctrl_site434]”, the “gcPBM binding intensity (ln)” value worked out at 8.65 ± 0.32.

For “TTTTAAAAAATATAATAATATAAATATGTTTTATAC [CACACA_negctrl_site643]”, the “gcPBM binding intensity (ln)” value stood at 8.2 ± 0.42.

As to “TAAATAAATAAAAATAGTACATAATTATTATTATTA [XGTACX_site4981]”, the “gcPBM binding intensity (ln)” value is 8.48 ± 0.56.

Turning to “ATATATATGTATGTATGTACACACAAAAAATGGAAT [XGTACX_site7879]”, the “gcPBM binding intensity (ln)” value is 9.65 ± 0.38.
